# Where two headings read alike, the source gives them in different places. These are yes or no findings as the source states them, for the method shown. In cells and extracts the contact can be indirect. Some entries that bind do so weakly or less than the wild type. For part of these data: Tags and fused reporters may be left off the sequences shown.
# Protein sequences, listed by entry. Tags and fused reporters are not part of them. Lines headed by an entry give the natural chain unless they say otherwise; changes in a name come on top. Chains listed by the source or under a name are the forms on record and can include a tag or linker.
# UniProt P51148: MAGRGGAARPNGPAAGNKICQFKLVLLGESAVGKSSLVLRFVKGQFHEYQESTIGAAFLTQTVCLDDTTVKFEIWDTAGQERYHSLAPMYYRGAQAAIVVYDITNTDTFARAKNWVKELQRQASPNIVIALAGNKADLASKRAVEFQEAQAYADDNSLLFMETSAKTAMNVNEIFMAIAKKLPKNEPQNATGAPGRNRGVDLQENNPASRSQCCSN
# Rab5CΔ (50–58) (pCMV-HA-Rab5CΔ (50–58)) (P51148, form named): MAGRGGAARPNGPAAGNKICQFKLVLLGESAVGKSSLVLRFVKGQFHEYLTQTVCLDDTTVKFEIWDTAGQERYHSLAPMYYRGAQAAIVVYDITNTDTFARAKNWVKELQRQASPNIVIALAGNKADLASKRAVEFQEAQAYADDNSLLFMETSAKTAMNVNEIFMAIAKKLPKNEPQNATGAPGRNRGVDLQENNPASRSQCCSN
# T1: TBC1D16 (pCMV-Flag-TBC1D16) (UniProt Q8TBP0)
# T1 sequence: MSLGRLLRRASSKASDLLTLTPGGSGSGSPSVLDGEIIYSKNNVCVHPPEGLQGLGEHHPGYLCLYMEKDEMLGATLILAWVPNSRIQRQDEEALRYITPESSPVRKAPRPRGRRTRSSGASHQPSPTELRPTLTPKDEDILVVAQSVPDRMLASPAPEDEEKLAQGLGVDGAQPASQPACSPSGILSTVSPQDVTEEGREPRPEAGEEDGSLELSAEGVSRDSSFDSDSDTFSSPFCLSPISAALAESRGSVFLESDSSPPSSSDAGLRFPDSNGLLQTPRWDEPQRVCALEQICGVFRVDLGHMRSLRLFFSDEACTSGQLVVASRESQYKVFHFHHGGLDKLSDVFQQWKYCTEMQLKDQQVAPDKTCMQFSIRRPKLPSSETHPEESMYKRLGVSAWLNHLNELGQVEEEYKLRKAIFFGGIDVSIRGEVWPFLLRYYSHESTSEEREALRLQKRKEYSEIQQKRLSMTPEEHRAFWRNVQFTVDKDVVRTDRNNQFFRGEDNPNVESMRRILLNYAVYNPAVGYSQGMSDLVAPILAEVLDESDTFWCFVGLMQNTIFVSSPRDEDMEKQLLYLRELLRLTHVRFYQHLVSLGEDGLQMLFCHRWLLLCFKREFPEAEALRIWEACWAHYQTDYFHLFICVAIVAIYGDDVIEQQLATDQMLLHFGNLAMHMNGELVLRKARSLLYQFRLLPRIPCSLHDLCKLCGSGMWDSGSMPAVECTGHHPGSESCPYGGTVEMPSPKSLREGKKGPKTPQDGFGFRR
# T2: TBC1D16-R431A (UniProt Q8TBP0)
# T2 sequence: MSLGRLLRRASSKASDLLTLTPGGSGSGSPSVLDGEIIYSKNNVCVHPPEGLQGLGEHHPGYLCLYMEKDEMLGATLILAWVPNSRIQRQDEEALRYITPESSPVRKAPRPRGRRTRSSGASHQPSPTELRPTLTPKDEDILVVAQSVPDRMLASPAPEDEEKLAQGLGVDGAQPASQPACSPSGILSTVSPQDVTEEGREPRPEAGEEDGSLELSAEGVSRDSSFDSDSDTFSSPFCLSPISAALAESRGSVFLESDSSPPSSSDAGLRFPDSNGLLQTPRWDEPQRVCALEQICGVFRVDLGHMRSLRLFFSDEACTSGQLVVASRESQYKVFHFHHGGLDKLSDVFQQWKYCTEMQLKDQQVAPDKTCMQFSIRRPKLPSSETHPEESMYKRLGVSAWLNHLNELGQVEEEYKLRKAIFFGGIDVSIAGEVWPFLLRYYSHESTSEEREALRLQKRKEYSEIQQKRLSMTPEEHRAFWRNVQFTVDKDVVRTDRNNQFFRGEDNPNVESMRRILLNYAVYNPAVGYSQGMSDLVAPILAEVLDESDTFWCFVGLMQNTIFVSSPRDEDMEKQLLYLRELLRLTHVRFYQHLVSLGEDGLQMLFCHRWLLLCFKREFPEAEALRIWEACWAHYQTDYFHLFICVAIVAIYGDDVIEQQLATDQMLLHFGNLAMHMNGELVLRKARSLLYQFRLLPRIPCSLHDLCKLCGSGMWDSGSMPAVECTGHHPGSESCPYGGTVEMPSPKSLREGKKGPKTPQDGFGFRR
# T3: TBC1D16-Q531A (UniProt Q8TBP0)
# T3 sequence: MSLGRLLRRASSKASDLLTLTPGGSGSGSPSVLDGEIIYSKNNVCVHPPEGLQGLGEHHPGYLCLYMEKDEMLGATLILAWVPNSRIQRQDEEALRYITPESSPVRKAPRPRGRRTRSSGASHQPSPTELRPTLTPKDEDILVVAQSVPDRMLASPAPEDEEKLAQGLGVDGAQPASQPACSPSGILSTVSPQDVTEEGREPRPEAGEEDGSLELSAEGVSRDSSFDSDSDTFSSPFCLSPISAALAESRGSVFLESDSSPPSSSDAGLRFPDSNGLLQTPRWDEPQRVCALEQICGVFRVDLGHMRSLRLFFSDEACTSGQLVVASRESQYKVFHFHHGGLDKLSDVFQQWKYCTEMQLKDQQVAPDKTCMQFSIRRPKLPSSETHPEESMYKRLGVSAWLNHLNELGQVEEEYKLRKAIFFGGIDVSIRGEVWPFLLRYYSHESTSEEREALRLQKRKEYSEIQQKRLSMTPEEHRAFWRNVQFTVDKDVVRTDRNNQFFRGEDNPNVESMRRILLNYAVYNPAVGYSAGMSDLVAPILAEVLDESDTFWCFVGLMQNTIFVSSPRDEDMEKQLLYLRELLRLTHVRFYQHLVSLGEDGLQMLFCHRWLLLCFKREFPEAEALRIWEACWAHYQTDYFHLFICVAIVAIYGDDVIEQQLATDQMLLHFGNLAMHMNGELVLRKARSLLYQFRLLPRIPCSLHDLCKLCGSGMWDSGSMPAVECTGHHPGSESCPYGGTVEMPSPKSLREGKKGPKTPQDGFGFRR
# T4: TBC1D16-R494A (UniProt Q8TBP0)
# T4 sequence: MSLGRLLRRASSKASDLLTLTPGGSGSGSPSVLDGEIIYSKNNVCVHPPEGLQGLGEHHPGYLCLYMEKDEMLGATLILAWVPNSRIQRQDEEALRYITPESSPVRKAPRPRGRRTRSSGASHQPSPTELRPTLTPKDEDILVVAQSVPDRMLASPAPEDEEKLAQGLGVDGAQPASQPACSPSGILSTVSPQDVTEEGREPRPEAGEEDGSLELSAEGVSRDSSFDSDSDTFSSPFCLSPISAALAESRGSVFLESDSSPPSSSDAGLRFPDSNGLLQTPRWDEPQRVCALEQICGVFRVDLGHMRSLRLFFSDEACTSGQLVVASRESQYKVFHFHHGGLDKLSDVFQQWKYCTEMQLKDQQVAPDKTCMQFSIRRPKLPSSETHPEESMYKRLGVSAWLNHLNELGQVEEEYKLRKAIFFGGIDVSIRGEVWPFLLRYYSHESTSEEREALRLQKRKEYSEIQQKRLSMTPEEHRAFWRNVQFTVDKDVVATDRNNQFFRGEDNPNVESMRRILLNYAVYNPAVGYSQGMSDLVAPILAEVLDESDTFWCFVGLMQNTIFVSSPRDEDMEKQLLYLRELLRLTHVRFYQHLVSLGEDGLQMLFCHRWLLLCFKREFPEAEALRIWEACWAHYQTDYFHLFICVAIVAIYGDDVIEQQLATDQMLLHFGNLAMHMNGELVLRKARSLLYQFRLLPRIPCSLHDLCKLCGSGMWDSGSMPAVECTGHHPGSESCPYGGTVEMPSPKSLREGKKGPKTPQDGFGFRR
# What was measured:
# Assay in all cases: co-IP; HEK293T cells cotransfected with the two tagged plasmids (3 ug each) for 48 h; lysed in Nonidet P-40 buffer (150 mM NaCl, 1 mM EDTA, 1% NP-40); precipitated with IgG (control) or the indicated antibodies on Protein A/G Plus-Agarose; washed three times with 500 mM NaCl lysis buffer …
# [1] = molecular target: T1, TBC1D16 (pCMV-Flag-TBC1D16)
# TBC1D16-R431A = molecular target: T2, TBC1D16-R431A
# TBC1D16-Q531A = molecular target: T3, TBC1D16-Q531A
# TBC1D16-R494A = molecular target: T4, TBC1D16-R494A
# [2] = molecular target: T1, TBC1D16 (pCMV-Flag-TBC1D16); remark: listed apart in the source
# Rab5C (pCMV-HA-Rab5C) = Rab5C (pCMV-HA-Rab5C) (UniProt P51148)
Molecule,binding [1],binding [2],binding (Rab5C (pCMV-HA-Rab5C)),other results
Rab5C (pCMV-HA-Rab5C) (from UniProt P51148 1-216),binds,–,–,binding (TBC1D16-R431A): binds; binding (TBC1D16-Q531A): no binding; binding (TBC1D16-R494A): no binding
Rab5CΔ (50–58) (pCMV-HA-Rab5CΔ (50–58)) (from UniProt P51148 1-216),no binding,–,–,–
"PFV Tas (pCMV-Myc-Tas) (protein, UniProt P14353 1-300) MDSYEKEESVASTSGIQDLQTLSELVGPENAGEGELTIAEEPEENPRRPRRYTKREVKCVSYHAYKEIEDKHPQHIKLQDWIPTPEEMSKSLCKRLILCGLYSAEKASEILRMPFTVSWEQSDTDPDCFIVSYTCIFCDAVIHDPMPIRWDPEVGIWVKYKPLRGIVGSAVFIMHKHQRNCSLVKPSTSCSEGPKPRPRHDPVLRCDMFEKHHKPRQKRPRRRSIDNESCASSSDTMANEPGSLCTNPLWNPGPLLSGLLEESSNLPNLEVHMSGGPFWEEVYGDSILGPPSGSGEHSVL",–,no binding,no binding,–
"PFV Bet (pCMV-HA-Bet) (protein, UniProt P89873 1-482) MDSYEKEESVASTSGIQDLQTLSELVGPENAGEGELTIAEEPEENPRRPRRYTKREVKCVSYHAYKEIEDKHPQHIKLQDWIPTPEEMIAQKVQNQDLGTILSFDVTCLKSITSLGRNDPGDDPSIMSHVLPVVTPWPMSQDHYAPTLFGILDRYYQGYLKSPATYQTWKFTCQVDPSGKRFMETQFWVPPLGQVNIQFYKNYQILTCCQAVDPFANIFHGTDEEMFDIDSGPDVWCSPSLCFKVIYEGAMGQKQEQKTWLCRLGHGHRMGACDYRKVDLYAMRQGKENPYGDRGDAALQYAYQVKRGCKAGCLASPVLNYKALQFHRTIMADFTNPRIGEGHLAHGYQAAMEAYGPQRGSNEERVWWNVTRNQGKQGGEYYREGGEEPHYPNTPAPHRRTWDERHKVLKLSSFATPSDIQRWTTKALPYGWKVVTESGNDYTSRRKIRTLTEMTQDEIRKRWESGYCDPFIDSGSDSDGPF",–,no binding,–,–
"PFV Bet (pCMV-His-Bet) (protein, UniProt P89873 1-482) MDSYEKEESVASTSGIQDLQTLSELVGPENAGEGELTIAEEPEENPRRPRRYTKREVKCVSYHAYKEIEDKHPQHIKLQDWIPTPEEMIAQKVQNQDLGTILSFDVTCLKSITSLGRNDPGDDPSIMSHVLPVVTPWPMSQDHYAPTLFGILDRYYQGYLKSPATYQTWKFTCQVDPSGKRFMETQFWVPPLGQVNIQFYKNYQILTCCQAVDPFANIFHGTDEEMFDIDSGPDVWCSPSLCFKVIYEGAMGQKQEQKTWLCRLGHGHRMGACDYRKVDLYAMRQGKENPYGDRGDAALQYAYQVKRGCKAGCLASPVLNYKALQFHRTIMADFTNPRIGEGHLAHGYQAAMEAYGPQRGSNEERVWWNVTRNQGKQGGEYYREGGEEPHYPNTPAPHRRTWDERHKVLKLSSFATPSDIQRWTTKALPYGWKVVTESGNDYTSRRKIRTLTEMTQDEIRKRWESGYCDPFIDSGSDSDGPF",–,–,no binding,–

# — PMC8339588
